What all share (assay): Primary Screen for Target Class Profiling of Small Molecule Inhibitors of Methyltransferases
The target in assay [1] is Glycine N-methyltransferase (Homo sapiens) (UniProt Q14749). Conditions: purified enzyme, MTase-Glo SAH luminescence; measured here: GNMT inhibition; at 40 µM; stronger effect = lower value. The method, boiled down: (§1)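 Each enzyme was assayed with SAM and its substrate. SAH formation detected by MTase-Glo luminescence; single-point 40 uM screen[…].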
Assay [2] addresses Guanidinoacetate N-methyltransferase (Homo sapiens) (UniProt Q14353). Conditions: purified enzyme, MTase-Glo SAH luminescence; measured here: GAMT inhibition; at 40 µM; stronger effect = lower value. The gist of the method:
as §1

Assay [3] concerns the target Histamine N-methyltransferase (Homo sapiens) (UniProt P50135). Conditions: purified enzyme, MTase-Glo SAH luminescence; measured here: HNMT inhibition; at 40 µM; stronger effect = lower value. The gist of the method:
as §1

Assay [4] addresses Nicotinamide N-methyltransferase (Homo sapiens) (UniProt P40261). To be noted: purified enzyme, MTase-Glo SAH luminescence; measured here: NNMT inhibition; at 40 µM; stronger effect = lower value. The gist of the method:
as §1

In assay [5] the target is Phenylethanolamine N-methyltransferase (Homo sapiens) (UniProt P11086). To be noted: purified enzyme, MTase-Glo SAH luminescence; measured here: PNMT inhibition; at 40 µM; stronger effect = lower value. The gist of the method:
as §1

The list shows a part of the results. Further columns of the screen follow, without active or inactive calls.
% is set by controls: 0 for no effect and ±100 for the full control effect.

As for `C[C@@H](Nc1ncnc2[nH]c(-c3ccc(O)cc3)cc12)c1ccccc1`, the activity change, negative = inhibition in assay [1] is -34.1%; in assay [2], 0.587%; in assay [3] it was -41.4%; in assay [4], -39.6%; in assay [5] it was -47%.

Take `CC/C=C\CCO[C@@H]1O[C@H](CO[C@@H]2OC[C@H](O)[C@H](O)[C@H]2O)[C@@H](O)[C@H](O)[C@H]1O`: the activity change, negative = inhibition was 1.63% in assay [1]; 3.82% in assay [2]; 6.17% in assay [3]; -9.5% in assay [4]; -3.46% in assay [5].

As for `C=Cc1ccc(CSc2nnc3n(CC(C)C)c(=O)c4ccccc4n23)cc1`, the activity change, negative = inhibition in assay [1] was -2.43%; in assay [2], 1.45%; in assay [3] it was 5.44%; in assay [4], -8.31%; in assay [5], 5.01%.

Regarding `CC(CN1C(=O)c2ccc(-c3ccco3)n2CC1(C)C(=O)NC1CCCCCCC1)c1ccccc1` (stereo not drawn), the activity change, negative = inhibition in assay [1] was -7.21%; in assay [2], 2.34%; in assay [3], -1.68%; in assay [4] it was -17.2%; in assay [5], -5.01%.

As for `COC1=CC(=O)C[C@@H](C)[C@@]12Oc1c(Cl)c(OC)cc(OC)c1C2=O`, the activity change, negative = inhibition is 1.23% in assay [1]; 6.13% in assay [2]; 9.76% in assay [3]; -8.4% in assay [4]; -0.757% in assay [5].

On to `CCc1ccc(-c2cc3n(n2)CC(C)(C(=O)NC2CCCCC2)N(Cc2cccs2)C3=O)cc1` (stereo not drawn), for which the activity change, negative = inhibition in assay [1] is 1.47%; in assay [2] it was 6.8%; in assay [3], -1.26%; in assay [4], -0.453%; in assay [5] it was -2.52%.

As for `Cc1ccc(CCCO)c(NCc2ccc3nc(NCCCN4CCOCC4)n(Cc4nc(C)ccc4O)c3c2)c1`, the activity change, negative = inhibition is -1.77% in assay [1]; 23.2% in assay [2]; -9.34% in assay [3]; -2.74% in assay [4]; 7.83% in assay [5].

Regarding `CCn1c(=O)n(CC)c2cc(S(=O)(=O)N3CCC(Cc4ccccc4)CC3)ccc21`, the activity change, negative = inhibition was 0.862% in assay [1]; 2.53% in assay [2]; 4.04% in assay [3]; -5.83% in assay [4]; 7.3% in assay [5].

Turning to `c1ccc(CNc2ncc(CN3CCC4(CCNCC4)C3)cn2)cc1`, the activity change, negative = inhibition in assay [1] was -6.86%; in assay [2], -7.22%; in assay [3], -10.1%; in assay [4], -15.7%; in assay [5], -10.9%.

In the case of `Cc1cc2c(cc1S(=O)(=O)Nc1ccc(C(C)C)cc1)n(C)c(=O)n2C`, the activity change, negative = inhibition in assay [1] was 2.91%; in assay [2] it was 0%; in assay [3], 0.319%; in assay [4], -9.29%; in assay [5], -0.514%.

For the compound `Fc1ccc(N2CCN(c3nc4ccccc4c4nc(-c5ccccc5)nn34)CC2)cc1`, the activity change, negative = inhibition in assay [2] is 8.28%; in assay [4] it was -3.62%; in assay [5], 3.17%.

In the case of `CC1OC(OC2C(OC(=O)[C@]34CCC(C)(C)C[C@H]3C3=CCC5[C@@]6(C)CC[C@H](OC7OC(C(=O)O)C(O)C(O)C7O)C(C)(C)C6CC[C@@]5(C)[C@]3(C)CC4O)OC(CO)C2O)C(O)C(O)C1OC1OCC(O)C(O)C1O` (stereo partly drawn), the activity change, negative = inhibition in assay [1] is 1.71%; in assay [2] it was 5.27%; in assay [3], 10.1%; in assay [4], -10.6%; in assay [5] it was 1.58%.

For `CC1(C(=O)NC2CCCC2)Cn2c(ccc2-c2ccco2)C(=O)N1Cc1ccc(F)cc1` (stereo not drawn), the activity change, negative = inhibition in assay [1] was -6.78%; in assay [2] it was -1.61%; in assay [3], 0.747%; in assay [4], -7.8%; in assay [5] it was -2.71%.

Regarding `Cc1c(C(=O)N2CCC(C(=O)N3CCN(c4ccccc4)CC3)CC2)oc2cc3sc(N(C)C)nc3cc12`, the activity change, negative = inhibition was -5.28% in assay [1]; 4.87% in assay [2]; 3% in assay [3]; 4.28% in assay [4]; -0.551% in assay [5].

In the case of `CC(=O)/C=C/C1(O)C(C)CC(O[C@@H]2O[C@H](CO)[C@@H](O)[C@H](O)[C@H]2O)CC1(C)C` (stereo partly drawn), the activity change, negative = inhibition was 16.5% in assay [1]; 5.4% in assay [2]; 11.2% in assay [3]; -7.84% in assay [4]; 8.3% in assay [5].

On to `C=CC/C=C\C/C=C\CCCCCCCc1cccc(O)c1C(=O)O`, for which the activity change, negative = inhibition in assay [1] is -11.5%; in assay [2], -23.2%; in assay [3] it was 0.987%; in assay [4], -38.3%; in assay [5], -9.07%.

For the compound `COc1ccc(CN2C(=O)c3cc(-c4ccc(C(C)C)cc4)nn3CC2(C)C(=O)NCCC(C)C)cc1` (stereo not drawn), the activity change, negative = inhibition is 2.36% in assay [1]; 0% in assay [2]; 3.13% in assay [3]; 3.54% in assay [4]; -1.82% in assay [5].

For the compound `CCCn1c(=O)c2ccc(C(=O)NCC(C)C)cc2n2c(=O)n(CC(=O)c3ccc(C)cc3)nc12`, the activity change, negative = inhibition in assay [1] was found to be 2.36%; in assay [2], 0%; in assay [3], 6.08%; in assay [4], 3.56%; in assay [5], 3.91%.

For `CC1CCN(S(=O)(=O)c2ccc3c(c2)oc(=O)n3CC(=O)N2CCN(C3CCCCC3)CC2)CC1`, the activity change, negative = inhibition in assay [1] was -1.16%; in assay [2] it was 0%; in assay [3], -5.11%; in assay [4], 3.73%; in assay [5], 0.569%.

As for `C=C1CC2[C@@]3(C)C=CC(=O)C(C)(C)C3=C(O)C(=O)[C@@]2(C)C2(C(=O)OC)C(=O)C(C)OC(=O)[C@@]12C` (stereo partly drawn), the activity change, negative = inhibition in assay [1] was -8.73%; in assay [2] it was -6.71%; in assay [3], 3.48%; in assay [4] it was -17.5%; in assay [5] it was -0.79%.

For the compound `O=C(NCc1ccc(Cl)cc1)c1ccc2c(=O)nc3c(-c4ccc(F)cc4)n[nH]n3c2c1`, the activity change, negative = inhibition in assay [1] was -10.7%; in assay [2] it was 0.734%; in assay [3], 0.197%; in assay [4], -8.62%; in assay [5] it was -2.63%.

On to `COc1ccc(-c2cc3n(n2)CC(C)(C(=O)NCc2ccccc2)N(c2ccc(F)cc2)C3=O)cc1` (stereo not drawn), for which the activity change, negative = inhibition was 1.55% in assay [1]; 2.67% in assay [2]; 5.51% in assay [3]; -0.541% in assay [4]; -0.378% in assay [5].

For `CCN1CCC(N2CC[C@H](CO)[C@H](N(C)C)C2)CC1`, the activity change, negative = inhibition in assay [1] was -1.09%; in assay [2], -1.24%; in assay [3], -1.47%; in assay [4], -2.94%; in assay [5], 2.07%.

For `C=C1C(=O)O[C@@H]2C(OC(=O)/C(C)=C\C)/C(C)=C\C(=O)/C=C(\C)C[C@H](O)[C@@H]12` (stereo partly drawn), the activity change, negative = inhibition in assay [1] is -4.73%; in assay [2] it was -12%; in assay [3] it was 6.32%; in assay [4], -20.6%; in assay [5] it was -2.37%.

In the case of `COc1ccccc1CNS(=O)(=O)c1ccc2[nH]c(=O)[nH]c2c1`, the activity change, negative = inhibition stood at 11.6% in assay [1]; 2.61% in assay [2]; 9.62% in assay [3]; 0.665% in assay [4]; 0.369% in assay [5].

On to `OC1CCOC2(CCN(Cc3ccc4cc[nH]c4c3)CC2)C1` (stereo not drawn), for which the activity change, negative = inhibition in assay [1] is -5.04%; in assay [2], -6.49%; in assay [3], -15.7%; in assay [4] it was -4.82%; in assay [5] it was -4.12%.

Regarding `COc1nc(C)nc(Cl)c1NC1=NCCN1`, the activity change, negative = inhibition in assay [1] is 2.87%; in assay [2], 8.93%; in assay [3], 4.39%; in assay [4], -4.25%; in assay [5], 1.62%.

For `Cc1ccc(SC2CCN(Cc3nc(CCc4ccccc4)no3)CC2)cc1`, the activity change, negative = inhibition in assay [1] was -7.13%; in assay [2], -4.79%; in assay [3], -3.99%; in assay [4], -6.08%; in assay [5], -6.72%.

Source of the values: PubChem BioAssay AID1745853 (National Center for Advancing Translational Sciences (NCATS), 2022).
